Test results taken from PubChem BioAssay AID485294 (National Center for Advancing Translational Sciences (NCATS), 2010).
Out of some 370,000 compounds screened, about 150 (0.041%) were called active. Inconclusive means that the source gave no clear call. Such entries were picked first, then a sample of the others. Calls follow the shape of the dose curve; as a rule, active = well fitted inhibition curve with a large enough effect; inconclusive = small, poorly fitted or top-dose-only effect; inactive = flat fitted curve, though single readings scatter. No potency is given beside an inconclusive call; the fits are too rough.

Target: Beta-lactamase (Escherichia coli (strain K12)) (UniProt P00811)
Assay: qHTS Inhibitors of AmpC Beta-Lactamase (assay with detergent); also: nearly all actives have a fitted effect of over 25% in size;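 as to activity change, negative = inhibition: 0% = no-compound wells and -100% = no-enzyme wells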
Conditions: AmpC hydrolysis of nitrocefin, absorbance 480 nm, 0.01% Triton; activity change, negative = inhibition: at 114 µM (top of the series)
Method in brief: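 20 mM phosphate pH 7.0 + 0.01% (detergent screen) or 0.0001% Triton X-100; 5.3 nM AmpC reagent; cpd preinc 15 min RT; nitrocefin (800 uM stock) to start; A480 q20 s × 4 min; Activity was normalised to no-enzyme and no-compound control wells.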
Potency is read from the fitted curve at half-maximal effect; tags tell the direction and shape of the fitted curve.

Sequence of UniProt P00811 (P00811 whole entry, looked up): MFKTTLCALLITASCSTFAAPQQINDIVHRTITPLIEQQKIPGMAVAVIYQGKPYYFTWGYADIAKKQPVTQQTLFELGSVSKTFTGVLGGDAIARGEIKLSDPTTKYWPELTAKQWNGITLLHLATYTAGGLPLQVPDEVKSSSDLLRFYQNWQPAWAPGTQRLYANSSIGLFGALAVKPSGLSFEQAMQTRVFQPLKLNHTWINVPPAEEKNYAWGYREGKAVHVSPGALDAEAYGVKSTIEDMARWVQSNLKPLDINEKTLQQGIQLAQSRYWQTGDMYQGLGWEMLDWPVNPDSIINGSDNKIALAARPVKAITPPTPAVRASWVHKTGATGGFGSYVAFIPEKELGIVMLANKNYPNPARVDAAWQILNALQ

Row | Structure (SMILES) | Potency | activity change, negative = inhibition
1 | Cc1cc(C)nc(N2CCN(c3ncnc4c3cnn4Cc3ccc(Cl)cc3Cl)CC2)n1 | inconclusive [inhibitor, full curve, poor fit] | 
2 | O=C(Nc1cc(Cl)ccc1Oc1ccccc1)c1cnccn1 | inconclusive [inhibitor, full curve, poor fit] | 
3 | COc1cc(OC)c(N2CC34C=CC(O3)C(C(=O)O)C4C2=O)cc1Cl (stereo not drawn) | inconclusive [inhibitor, full curve, poor fit] | 
4 | CCNC(=S)N1CCN(C(=O)c2ccco2)CC1 | inconclusive [inhibitor, partial curve] | 
5 | CC1CCCN(C(=O)Cn2c(=O)n(CC3CCC(C(=O)NC(C)C)CC3)c(=O)c3sccc32)C1 (stereo not drawn) |  | inactive: 25.4%
6 | O=C(C1CCCC1)N(c1ccccc1)C1C=CS(=O)(=O)C1 (stereo not drawn) | inconclusive [inhibitor, full curve] | 
7 | CCOC(=O)C(C)C(C)=O (stereo not drawn) |  | inactive: -1.9%
8 | Cc1ccc2nc(-c3ccc(NC(=O)COC(=O)c4cncc(Br)c4)cc3)sc2c1 |  | inactive: 2.89%
9 | Cc1cc(=O)oc2cc(OCC(=O)N3CCN(C(=O)c4ccco4)CC3)ccc12 |  | inactive: -5.08%
10 | CCOC(=O)CC(NC(=O)Cc1cccs1)c1ccccc1Cl (stereo not drawn) |  | inactive: -0.882%
11 | O=S(=O)(CC(CN1CCCC1)N1CCCC1)c1ccc2ccccc2c1 (stereo not drawn) | inconclusive [inhibitor, partial curve] | 
12 | Cc1cc(C(=O)CSc2nnc(-c3ccc(OC(F)F)cc3)o2)c(C)n1Cc1cccs1 | inconclusive [inhibitor, full curve, poor fit] | 
13 | Cc1nn(-c2ccccc2)c2sc(C(=O)N3CCOCC3)cc12 | inconclusive [inhibitor, partial curve, poor fit] | 
14 | COc1ccc(-c2cn3cccnc3n2)cc1Br |  | inactive: -7.34%
15 | CCOCCCNC(=O)C(NC(=O)c1ccccc1O)c1ccc(Cl)cc1 (stereo not drawn) | inconclusive [inhibitor, full curve, poor fit] | 
16 | O=C1c2ccccc2NC(c2ccc(O)cc2)N1c1ccccc1 (stereo not drawn) |  | inactive: -9.4%
17 | COc1ccc(N(CC(=O)N2CCN(c3cccc(OC)c3)CC2)S(=O)(=O)c2c(C)noc2C)cc1 |  | inactive: -1.47%
18 | CCN(Cc1cccc(F)c1)C(=O)c1ccc2ccccc2n1 |  | inactive: -4.29%
19 | O=C(c1cc(-c2cccs2)on1)N1CCc2ccccc2C1 | inconclusive [inhibitor, full curve, poor fit] | 
20 | O=C1c2ccccc2C(=O)N1/N=C/c1ccc(O)c(O)c1 |  | inactive: -1.15%
21 | Cc1ccc(NC(=O)CCSc2nnc(C)s2)cc1 | inconclusive [inhibitor, single point] | 
22 | O=C(Nc1ncc2c(n1)CC(c1ccco1)CC2=O)c1ccccc1 (stereo not drawn) | inconclusive [inhibitor, full curve] | 
23 | CCN1C(=O)[C@H]2[C@@H](c3ccc(-c4cccc(Cl)c4)c(OC)c3)N[C@@](Cc3ccccc3)(C(=O)OC)[C@H]2C1=O | inconclusive [inhibitor, partial curve, poor fit] | 

Row | Structure (SMILES) | Potency | activity change, negative = inhibition
24 | CCCNS(=O)(=O)c1cc(Br)cc2c1N(C(=O)CC)CC2 | inconclusive [inhibitor, full curve, poor fit] | 
25 | COCCCNC(=O)CSC1=Nc2ccccc2C2=NC(c3ccccc3)C(=O)N12 (stereo not drawn) |  | inactive: 0.533%
26 | COc1ccccc1OCCNC(=O)C1CC(=O)N(c2ccc3c(c2)OCCO3)C1 (stereo not drawn) | inconclusive [inhibitor, full curve, poor fit] | 
27 | C[N+]1(C)[C@@H]2CC[C@H]1CC(OC(=O)C(c1ccccc1)c1ccccc1)C2 (stereo partly drawn) |  | inactive: 2.14%
28 | O=C(NC1CC(=O)N(c2ccc(F)cc2)C1)N1CCN(C(=O)c2ccco2)CC1 (stereo not drawn) | inconclusive [inhibitor, partial curve, poor fit] | 
29 | CC(C)C(=O)Nc1cccc(C(=O)Nc2nnc(C(C)C)s2)c1 | inconclusive [inhibitor, single point] | 
30 | Cc1nc2ccc(Cl)cc2c(=O)n1-c1ccc([N+](=O)[O-])cc1 | inconclusive [inhibitor, partial curve] | 
31 | COc1cc(C(=O)Oc2cccc(C)c2)cc(OC)c1OC | inconclusive [inhibitor, single point] | 
32 | COc1ccc(S(N)(=O)=O)cc1N(C)S(=O)(=O)c1ccccc1 | inconclusive [inhibitor, full curve, poor fit] | 
33 | Cc1[nH]n(-c2nc(-c3cccc([N+](=O)[O-])c3)cs2)c(=O)c1C | inconclusive [inhibitor, partial curve] | 
34 | Nc1nc(NC(=O)CCCC(=O)O)nn1-c1ccccc1 | inconclusive [inhibitor, full curve, poor fit] | 
35 | O=C(CSc1ccc2ccccc2c1)NC1CCCc2ccccc21 (stereo not drawn) | inconclusive [inhibitor, single point] | 
36 | Cc1noc(C)c1COc1ccccc1C(=O)Nc1cccc(S(=O)(=O)N(C)C)c1 | inconclusive [inhibitor, full curve, poor fit] | 
37 | Cc1ccc2c(c1)N(C(=O)c1ccco1)C(C)(C)c1ssc(=S)c1-2 |  | inactive: 0.841%
38 | COc1ccc(-c2c(C)nn3c(NC4CCCC4)cc(C)nc23)cc1OC |  | inactive: -4.53%
39 | N#Cc1c(/N=C/c2ccccc2)oc(-c2ccccc2)c1-c1ccccc1 | inconclusive [inhibitor, full curve, poor fit] | 
40 | CN(Cc1ccccc1)C1=CC(=[N+]2CCCC2)CC(C)(C)C1 |  | inactive: 0.183%
41 | Cc1cc(OC(C)C(=O)N2CCN(c3ccc(F)cc3)CC2)c2c(C)c(C)c(=O)oc2c1 (stereo not drawn) | inconclusive [inhibitor, full curve, poor fit] | 
42 | Cc1ccc(S(=O)(=O)N(C)C)cc1NC(=O)COC(=O)/C=C/c1ccc(F)cc1 | inconclusive [inhibitor, full curve, poor fit] | 
43 | CSc1ccccc1NC(=O)CO/N=C(\C)c1cc2ccccc2o1 | inconclusive [inhibitor, partial curve, poor fit] | 
44 | CCc1ccccc1NC(=O)Cn1nnc(-c2cccnc2)n1 | inconclusive [inhibitor, partial curve] | 
45 | O=C(COc1ccc(Cl)cc1Cl)c1ccc[nH]1 |  | inactive: 4.59%
46 | CCOc1ccc(NC(=S)NNC(=S)Nc2cccc(C(F)(F)F)c2)cc1 | inconclusive [inhibitor, partial curve] | 

Row | Structure (SMILES) | Potency | activity change, negative = inhibition
47 | Cc1cc(C)c2oc(=O)cc(CN3CCOCC3)c2c1 |  | inactive: -2.78%
48 | O=C(CCNC(=O)c1ccco1)Nc1ccccc1N1CCOCC1 |  | inactive: 0.842%
49 | NS(=O)(=O)c1ccc(NC2=CC(=O)C(=O)c3ccccc32)cc1 | inconclusive [inhibitor, partial curve, poor fit] | 
50 | COc1cccc(CNC(=O)c2cc3ccccn3n2)c1 | inconclusive [inhibitor, partial curve, poor fit] | 
51 | Cc1cc(C(=O)CCC(=O)Nc2ncccc2O)c(C)s1 | inconclusive [inhibitor, partial curve, poor fit] | 
52 | O=C(c1ccc2c(c1)OCO2)N(c1ccccc1)C1C=CS(=O)(=O)C1 (stereo not drawn) | inconclusive [inhibitor, full curve, poor fit] | 
53 | CC(Oc1ccc(Cl)cc1)C(=O)Nc1ccc(S(=O)(=O)Nc2nccs2)cc1 (stereo not drawn) |  | inactive: 5.36%
54 | CC(NC(=O)c1cc2ccccn2n1)c1ccccc1 (stereo not drawn) | inconclusive [inhibitor, full curve, poor fit] | 
55 | COc1ccc(C(=O)N2CCN=C2SCc2cccnc2)cc1OC | inconclusive [inhibitor, partial curve, poor fit] | 
56 | Cc1ccc(NC2=NCC(=O)N2C2CCCC2)cc1 |  | inactive: -7.12%
57 | O=C(COc1ccc(Br)cc1)Nc1cccc2cccnc12 |  | inactive: 5.87%
58 | CC(C)CNS(=O)(=O)c1ccc(CCC(=O)Nc2ccc3c(c2)OCO3)cc1 | inconclusive [inhibitor, full curve, poor fit] | 
59 | Cc1ccc(C)c(CN2C(=O)C(O)(c3c[nH]c4ccccc34)c3ccccc32)c1 (stereo not drawn) |  | inactive: -2.67%
60 | Nc1nnc(-c2ccncc2)s1 | inconclusive [inhibitor, partial curve] | 
61 | CCc1cc2c(Sc3nc4ccccc4s3)ncnc2s1 | inconclusive [inhibitor, full curve, poor fit] | 
62 | O=c1oc2ccccc2c2c1C1O[C@](c3ccsc3)(Cc3c1ccc1ccccc31)O2 | inconclusive [inhibitor, full curve] | 
63 | COc1cc(-c2noc(CCC(=O)Nc3cccnc3)n2)cc(OC)c1OC | inconclusive [inhibitor, full curve, poor fit] | 
64 | COc1ccc(/C=N/NC(=S)Nc2cc(S(=O)(=O)N3CCOCC3)ccc2N2CCOCC2)cc1O |  | inactive: -6.38%
65 | CCc1ccc(N2C(=O)C3ON(c4ccccc4)C(c4ccco4)C3C2=O)cc1 (stereo not drawn) | inconclusive [inhibitor, full curve, poor fit] | 
66 | FC(F)(F)c1cnc(-n2cc[nH]c2=S)c(Cl)c1 | inconclusive [inhibitor, full curve, poor fit] | 
67 | COc1ccccc1CNC(=O)CSc1nc2nc(C)cc(C)n2n1 | inconclusive [inhibitor, full curve, poor fit] | 
68 | Nc1cc(C(=O)OCC(=O)N2CCN(C(=O)COC(=O)c3ccc(Cl)c(N)c3)CC2)ccc1Cl | inconclusive [inhibitor, partial curve, poor fit] | 
